# Data taken from the supplement of paper PMC12067093, “Discovery and optimisation of a covalent ligand for TRIM25 and its application to targeted protein ubiquitination” (Chemical Science, 2025).
# Targets with the largest changes are over-represented here; the source holds about 21,000 in all.
# Compound: CC1Cc2ccccc2N1C(=O)C1CCCN(C1)C(=O)CCl (mixture of isomers) [TRIM25 ligand 11 (diastereomer mixture)]
# Test: probe-labelled cysteine peptide fold change vs DMSO (competition) (log2 fold change); higher = less target engagement (more negative = stronger competition)
# Conditions: THP-1, incubation time: 4 h
# 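Further: competitive chemoproteomic profiling in live THP-1 cells with an iodoacetamide desthiobiotin (IA-DTB) probe, comparing probe-labelled peptide intensities in compound-treated cells against DMSO-treated controls.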
# Sequence of UniProt P06396 (P06396 whole entry, looked up): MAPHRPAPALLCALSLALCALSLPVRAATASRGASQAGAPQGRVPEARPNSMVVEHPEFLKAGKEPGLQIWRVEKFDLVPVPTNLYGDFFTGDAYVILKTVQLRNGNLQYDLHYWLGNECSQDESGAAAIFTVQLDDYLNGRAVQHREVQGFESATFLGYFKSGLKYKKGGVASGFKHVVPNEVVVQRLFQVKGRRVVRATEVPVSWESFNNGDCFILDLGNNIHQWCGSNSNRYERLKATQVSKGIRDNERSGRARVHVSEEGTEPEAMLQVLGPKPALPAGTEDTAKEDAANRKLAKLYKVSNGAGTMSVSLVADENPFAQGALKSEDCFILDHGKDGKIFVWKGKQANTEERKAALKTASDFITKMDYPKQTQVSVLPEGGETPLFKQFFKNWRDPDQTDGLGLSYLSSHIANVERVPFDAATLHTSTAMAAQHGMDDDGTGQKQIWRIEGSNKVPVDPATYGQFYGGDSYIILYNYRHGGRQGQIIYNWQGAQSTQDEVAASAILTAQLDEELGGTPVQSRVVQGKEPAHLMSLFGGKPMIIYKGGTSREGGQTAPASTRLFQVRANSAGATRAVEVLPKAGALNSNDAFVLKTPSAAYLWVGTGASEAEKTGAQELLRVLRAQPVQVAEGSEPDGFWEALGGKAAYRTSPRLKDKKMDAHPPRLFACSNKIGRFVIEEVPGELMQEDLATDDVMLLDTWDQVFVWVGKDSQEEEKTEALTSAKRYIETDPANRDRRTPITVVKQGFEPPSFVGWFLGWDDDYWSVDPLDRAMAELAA
# Sequence of UniProt P14866 (P14866 whole entry, looked up): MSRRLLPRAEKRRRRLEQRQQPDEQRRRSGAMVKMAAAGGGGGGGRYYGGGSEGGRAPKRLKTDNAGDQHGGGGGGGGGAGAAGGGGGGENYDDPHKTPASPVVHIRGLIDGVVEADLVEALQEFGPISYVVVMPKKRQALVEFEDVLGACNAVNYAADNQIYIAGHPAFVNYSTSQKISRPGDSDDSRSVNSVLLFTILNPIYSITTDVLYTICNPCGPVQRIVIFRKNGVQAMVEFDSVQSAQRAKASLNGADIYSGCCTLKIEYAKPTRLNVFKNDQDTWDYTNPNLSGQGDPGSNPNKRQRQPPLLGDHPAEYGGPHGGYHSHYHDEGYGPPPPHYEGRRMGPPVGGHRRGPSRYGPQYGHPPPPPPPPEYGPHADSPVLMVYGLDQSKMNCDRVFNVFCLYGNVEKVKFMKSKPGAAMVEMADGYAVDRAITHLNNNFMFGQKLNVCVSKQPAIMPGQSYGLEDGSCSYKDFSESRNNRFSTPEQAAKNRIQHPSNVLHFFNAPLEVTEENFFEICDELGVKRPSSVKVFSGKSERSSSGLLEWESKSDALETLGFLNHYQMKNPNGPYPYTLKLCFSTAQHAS
# Sequence of UniProt P35754 (P35754 whole entry, looked up): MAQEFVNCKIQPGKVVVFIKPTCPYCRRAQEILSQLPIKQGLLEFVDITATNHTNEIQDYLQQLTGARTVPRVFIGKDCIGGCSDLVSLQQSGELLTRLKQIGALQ
# Sequence of UniProt Q9BRR8 (Q9BRR8 whole entry, looked up): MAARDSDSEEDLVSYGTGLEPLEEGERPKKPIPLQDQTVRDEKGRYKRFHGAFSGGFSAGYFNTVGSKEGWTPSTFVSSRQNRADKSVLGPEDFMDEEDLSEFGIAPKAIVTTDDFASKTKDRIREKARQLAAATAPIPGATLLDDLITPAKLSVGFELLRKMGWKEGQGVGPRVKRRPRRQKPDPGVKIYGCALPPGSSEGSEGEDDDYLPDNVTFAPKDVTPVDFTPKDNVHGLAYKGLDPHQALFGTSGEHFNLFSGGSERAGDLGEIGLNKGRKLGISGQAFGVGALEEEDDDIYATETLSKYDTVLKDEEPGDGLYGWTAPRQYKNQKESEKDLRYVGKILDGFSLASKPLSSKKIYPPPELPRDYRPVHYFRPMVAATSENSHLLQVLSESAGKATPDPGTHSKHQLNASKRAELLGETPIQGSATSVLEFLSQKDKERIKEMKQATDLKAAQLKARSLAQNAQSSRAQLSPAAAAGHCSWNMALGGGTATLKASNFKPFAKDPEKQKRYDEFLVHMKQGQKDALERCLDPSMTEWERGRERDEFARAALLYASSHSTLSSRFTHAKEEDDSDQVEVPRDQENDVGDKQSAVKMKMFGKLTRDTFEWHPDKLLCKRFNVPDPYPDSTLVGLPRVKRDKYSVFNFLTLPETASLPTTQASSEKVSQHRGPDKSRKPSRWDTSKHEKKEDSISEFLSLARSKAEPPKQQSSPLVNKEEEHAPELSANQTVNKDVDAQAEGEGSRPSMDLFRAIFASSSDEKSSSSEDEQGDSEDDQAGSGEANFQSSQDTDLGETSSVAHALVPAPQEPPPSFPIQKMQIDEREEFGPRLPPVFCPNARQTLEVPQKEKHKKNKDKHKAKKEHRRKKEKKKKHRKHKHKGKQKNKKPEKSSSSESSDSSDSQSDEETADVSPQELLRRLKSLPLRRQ
# Sequence of UniProt Q9BUP3 (Q9BUP3 whole entry, looked up): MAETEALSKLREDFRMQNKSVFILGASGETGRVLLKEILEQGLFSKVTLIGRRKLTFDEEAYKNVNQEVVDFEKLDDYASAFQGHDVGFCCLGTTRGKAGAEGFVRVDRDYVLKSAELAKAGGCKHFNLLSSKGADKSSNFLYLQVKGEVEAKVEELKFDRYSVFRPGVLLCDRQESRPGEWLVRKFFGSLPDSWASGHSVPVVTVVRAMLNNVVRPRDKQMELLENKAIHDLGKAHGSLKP
# Sequence of UniProt Q9UKN8 (Q9UKN8 whole entry, looked up): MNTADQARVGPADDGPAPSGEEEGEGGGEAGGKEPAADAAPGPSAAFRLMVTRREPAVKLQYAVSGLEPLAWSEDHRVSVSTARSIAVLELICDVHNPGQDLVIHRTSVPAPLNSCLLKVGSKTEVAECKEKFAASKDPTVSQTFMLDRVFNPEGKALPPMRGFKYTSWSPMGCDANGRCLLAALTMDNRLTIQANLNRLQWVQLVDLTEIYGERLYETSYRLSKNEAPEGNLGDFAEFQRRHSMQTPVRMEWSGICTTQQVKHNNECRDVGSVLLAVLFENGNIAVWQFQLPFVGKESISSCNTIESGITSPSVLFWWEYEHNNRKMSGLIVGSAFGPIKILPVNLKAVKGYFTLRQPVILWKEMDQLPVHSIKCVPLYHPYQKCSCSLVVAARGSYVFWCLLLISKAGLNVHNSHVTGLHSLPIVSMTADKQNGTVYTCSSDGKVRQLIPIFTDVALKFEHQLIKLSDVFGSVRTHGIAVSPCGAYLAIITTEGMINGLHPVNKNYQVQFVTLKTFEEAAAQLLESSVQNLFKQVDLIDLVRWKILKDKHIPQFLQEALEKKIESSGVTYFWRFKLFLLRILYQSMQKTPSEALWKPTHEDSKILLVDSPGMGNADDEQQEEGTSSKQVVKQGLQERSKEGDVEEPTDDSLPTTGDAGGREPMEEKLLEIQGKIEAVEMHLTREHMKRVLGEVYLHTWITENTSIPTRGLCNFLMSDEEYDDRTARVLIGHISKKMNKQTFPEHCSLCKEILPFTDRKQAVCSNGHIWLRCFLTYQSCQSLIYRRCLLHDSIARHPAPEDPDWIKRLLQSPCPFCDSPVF
# Sequence of UniProt P06865 (P06865 whole entry): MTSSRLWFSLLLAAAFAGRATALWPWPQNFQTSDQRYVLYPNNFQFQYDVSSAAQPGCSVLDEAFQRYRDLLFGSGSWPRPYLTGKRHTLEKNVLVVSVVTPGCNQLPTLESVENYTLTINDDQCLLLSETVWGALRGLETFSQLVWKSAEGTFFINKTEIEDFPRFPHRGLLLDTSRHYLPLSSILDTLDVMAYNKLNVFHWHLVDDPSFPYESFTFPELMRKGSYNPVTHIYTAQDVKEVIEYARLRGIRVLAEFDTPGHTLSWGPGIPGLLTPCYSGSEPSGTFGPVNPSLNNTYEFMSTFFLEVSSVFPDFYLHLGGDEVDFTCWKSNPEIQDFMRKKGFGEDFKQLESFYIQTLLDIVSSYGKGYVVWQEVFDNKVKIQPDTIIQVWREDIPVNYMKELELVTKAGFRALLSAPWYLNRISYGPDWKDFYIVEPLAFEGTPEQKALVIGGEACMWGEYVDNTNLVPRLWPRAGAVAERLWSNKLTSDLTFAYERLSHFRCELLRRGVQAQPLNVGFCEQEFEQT
# Sequence of UniProt P49915 (P49915 whole entry, looked up): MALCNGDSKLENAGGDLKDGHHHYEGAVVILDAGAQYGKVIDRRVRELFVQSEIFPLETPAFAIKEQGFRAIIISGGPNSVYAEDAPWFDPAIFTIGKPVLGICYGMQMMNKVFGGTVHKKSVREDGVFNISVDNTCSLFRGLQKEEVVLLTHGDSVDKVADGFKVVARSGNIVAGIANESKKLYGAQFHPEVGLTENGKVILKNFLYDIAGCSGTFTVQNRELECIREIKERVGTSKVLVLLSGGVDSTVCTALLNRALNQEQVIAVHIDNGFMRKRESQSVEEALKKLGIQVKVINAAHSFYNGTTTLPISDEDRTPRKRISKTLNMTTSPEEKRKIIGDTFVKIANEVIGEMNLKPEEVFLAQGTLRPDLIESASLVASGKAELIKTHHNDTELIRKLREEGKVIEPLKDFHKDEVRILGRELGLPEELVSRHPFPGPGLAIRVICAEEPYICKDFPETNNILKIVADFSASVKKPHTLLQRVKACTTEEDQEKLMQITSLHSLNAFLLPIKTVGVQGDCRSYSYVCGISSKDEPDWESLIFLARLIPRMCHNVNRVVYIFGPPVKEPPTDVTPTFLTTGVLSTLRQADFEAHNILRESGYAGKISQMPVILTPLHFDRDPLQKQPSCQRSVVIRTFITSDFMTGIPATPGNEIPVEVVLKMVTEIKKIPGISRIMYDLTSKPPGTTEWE
# Sequence of UniProt P78417 (P78417 whole entry): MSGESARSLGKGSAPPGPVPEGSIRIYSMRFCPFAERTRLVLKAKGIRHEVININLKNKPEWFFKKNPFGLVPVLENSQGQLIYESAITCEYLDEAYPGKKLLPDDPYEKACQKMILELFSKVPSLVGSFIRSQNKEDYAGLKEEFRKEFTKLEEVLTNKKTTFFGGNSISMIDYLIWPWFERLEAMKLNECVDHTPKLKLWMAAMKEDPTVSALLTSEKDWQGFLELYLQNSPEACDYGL
Target,probe-labelled cysteine peptide fold change (10 µM),probe-labelled cysteine peptide fold change (50 µM)
GTF3C4_Q9UKN8_93_SIAVLELICDVHNPGQDLVIHR (UniProt Q9UKN8),0.198,0.205
GLCCI1_Q86VQ1_445_QPISAPLFSCPDK (UniProt Q86VQ1),-0.198,-0.217
GSN_P06396_215_ATEVPVSWESFNNGDCFILDLGNNIHQWCGSNSNRYER (UniProt P06396),-0.0631,0.235
GSTO1_P78417_192_LNECVDHTPK (UniProt P78417),0.0456,0.0287
GLRX_P35754_26_VVVFIKPTCPYCR (UniProt P35754),-0.438,-1.02
HASPIN_Q8TF76_219_ASLPCSQEEATGGAK (UniProt Q8TF76),-0.0801,-0.231
GSDMD_P57764_56_CVNLSIKDILEPDAAEPDVQR (UniProt P57764),-0.918,-0.403
GART_P22102_62_ISNTAISISDHTALAQFCK (UniProt P22102),0.305,-0.0487
HEXA_P06865_522_RGVQAQPLNVGFCEQEFEQT (UniProt P06865),0.056,-0.123
GOT2_P00505_295_VGAFTMVCK (UniProt P00505),0.0495,0.216
GPATCH1_Q9BRR8_485_AQLSPAAAAGHCSWNMALGGGTATLK (UniProt Q9BRR8),0.0037,-0.635
GMPS_P49915_554_MCHNVNR (UniProt P49915),-0.0349,0.0313
HTATIP2_Q9BUP3_90_NVNQEVVDFEKLDDYASAFQGHDVGFCCLGTTR (UniProt Q9BUP3),-0.181,0.13
HNRNPL_P14866_260_ASLNGADIYSGCCTLK (UniProt P14866),0.145,0.197
